Data: the supplement of paper PMC11417369
Some of the results follow.

test system: PF3D7_0420300 AP2 domain 1 (GST-tagged); assay: gcPBM binding intensity (ln(normalized median fluorescence intensity)); higher = stronger DNA binding
In short: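 Alexa488 anti-GST antibody, scanned at 488 nm, detected GST-tagged P. falciparum DNA-binding domains that had been expressed in E. coli and incubated for 1 h on an Agilent 4 × 180k array. The array carried primer-extended double-stranded 36-bp intergenic genomic probes and negative controls. Binding intensity is the highest Masliner-normalised natural-log median intensity across replicate spots of either orientation of each probe.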

| Sequence | gcPBM binding intensity (ln) |
| --- | --- |
| CTCATAGTTGGGTGCACACAAAAAATTAAAAAAATA [CACACA_site3032] | 9.32 |
| AATCAAAAAGGAACCATAATATTACAACTATATATA [CACACA_negctrl_site381] | 9.41 |
| TAAAACTTAATGTTTTGTACATATTCTTCTTTATTT [XGTACX_site4271] | 9.28 |
| AAAAAAAAAATTAAATGTACATATATAATATATATA [XGTACX_site7245] | 9.11 |
| GCCATAAAGATATATACACACATAAAAAAAAGTTAT [CACACA_site6674] | 9.62 |
| ATTATTATAGATAAAACACACAATTTTGTTTTCACA [CACACA_site7792] | 9.23 |
| TTAACAAAGAAACACACACACACACCCAAAAAAAAA [CACACA_site516] | 10.2 |
| AAACAATTATTATATTGTACATATATTACATTATTA [XGTACX_site1089] | 9.19 |
| TTATATTTTATTATGTGTACGTATATAATATAATAT [XGTACX_site6230] | 9.24 |
| TATAATATATAAAAATGTACACATAAATATAAGTAG [XGTACX_site665] | 9.54 |
| GTATATATGTTTTATACACACATTAAAGGAAATATA [CACACA_site984] | 9.39 |
| ACTAAATAAATAAATATAATATATAAATATGTATGT [TGCATGCA_negctrl_site583] | 9.32 |
| ACATGCAAGAAGAAATGTACTTAACATCTATATAGA [XGTACX_site7338] | 9.19 |
| AAAATTAATTTATTTACACACAATATTAAAATATTT [CACACA_site7512] | 9.35 |
| TTACATATTCATAAAAGTACATAATTATAAAAGGTA [XGTACX_site906] | 9.3 |
| TTTTATACATATTTTACACACTAAAATATACAGATA [CACACA_site4333] | 9.15 |
| ATATGTATATTTTTGATGTGCTTTTATTTGGTTATT [CACACA_negctrl_site626] | 9.66 |
| CATCCACATAGATGTACACACATATATATATATATA [CACACA_site5616] | 9.44 |
| CTTCATAAAAATTGCACACATATAATAATGTACATA [CACACA_site2212] | 9.28 |
| ATTTTTTTATAATCAACCCATTTCCTACATTTTTAT [CACACA_negctrl_site1237] | 9.48 |
| AAAAAAAATACATACACACACACACGCACATATATA [CACACA_site7645] | 10.4 |
| ATATCTCAACATATCACACATATATATATATAATAT [CACACA_site5018] | 9.42 |

| Sequence | gcPBM binding intensity (ln) |
| --- | --- |
| AATAAATATAAATAAATAAATATATATATATATTTG [CACACA_negctrl_site1486] | 9.04 |
| ATAAAAATATATGAAACACACAGTTTCTATAAGAAA [CACACA_site4156] | 9.22 |
| ATATGTATATAATAAGAACACACATATATTTAATTT [CACACA_site8961] | 9.56 |
| GTTATTAAATAATTCACACACATATATAAATAAATA [CACACA_site7129] | 9.64 |
| TACAATATAATTTAATGTACATGTGAATATATATAT [XGTACX_site4675] | 9.22 |
| TTAAAAAGAGGTGACACACACATATAAATCTAAATC [CACACA_site3738] | 9.83 |
| TAATATACTATAAATACACACAAGTGTACATACTTC [CACACA_site983] | 9.42 |
| TATTAAAAGGTGAGTACACACATATCTGAGTATATA [CACACA_site5192] | 9.42 |
| TTGTGCTAAACAAAAAAAAATATATATAAAAAAATA [XGTACX_negctrl_site388] | 8.95 |
| TCAACGATCACTCGGTGTACTATAAATGAGAGAATT [XGTACX_site1820] | 9.14 |
| AATTTTGAGATGTGGTGTACACAAAATTAGTTAGAC [XGTACX_site7033] | 9.49 |
| AACAATTTTTAAAGGTGTACAATATGTATATAAGAA [XGTACX_site254] | 9.34 |
| ATTAAATTAAAATAATGTACTTAATACTTTTGCTTA [XGTACX_site8404] | 9 |
| ATATATATATATAAAGGTACACATTTATTAAATATA [XGTACX_site7102] | 9.29 |
| TAATATATATAACATATACACACGTTCATATATATA [CACACA_site462] | 9.39 |
| TATTTGCAATATTATACACACATTAGATATTGCAAA [CACACA_site7565] | 9.31 |
| AAAAAAAAAAAAAAATGTACATATATAATATTTATA [XGTACX_site5117] | 9.17 |
| TACAAAATGTTATATCAATATAGATAAAAAAATGAA [XGTACX_negctrl_site285] | 9.14 |
| AACAAATTAATTCTAGTGCAGGACGTATTTGTGTAC [GTGCAC_site9907] | 9.41 |
| AATTAAACTTTGTTTTTGTTTTTTTTTTTTATATTT [CACACA_negctrl_site1316] | 9.25 |
| ATATATATAAATATATGTACATAAATATATTTGTAA [XGTACX_site6715] | 9.16 |
| TCTTTAACAAGTTAAACACACATACCTATATACATA [CACACA_site7237] | 9.3 |

| Sequence | gcPBM binding intensity (ln) |
| --- | --- |
| TGGTGATATACGAAATGTACGCAAATCACAAAATAA [XGTACX_site8836] | 9.15 |
| AAATAAAAATTAAAAAAATAGAAACGAATTGAATGC [TGCATGCA_negctrl_site365] | 9.75 |
| CGCGTATAACGAAATTGTACAAAAAAAATTAAACAT [XGTACX_site6813] | 9.32 |
| TATATATGGAAAAGAGTCAAAAAGAAAAAAGAAAAA [CACACA_negctrl_site1374] | 9.17 |
| TATGAAATATTTATACACAGAACTTCATAATTTTCA [TGCATGCA_negctrl_site509] | 9.04 |
| TTTTTGTATTCTTCTTCTTCCAGACTACATTATGTC [XGTACX_negctrl_site235] | 9.14 |
| ATATATTTAAAATTGACACACATTTAATGACATTTT [CACACA_site3112] | 9.33 |
| TAAGGATATATATATTCACACACACCGGGAAATATA [CACACA_site8020] | 9.93 |
| AAACAAATATATATATGTACTTATAAAAAAAAAAAT [XGTACX_site2211] | 9.34 |
| TTTTTATTTTTTGAAACACACACAAAAAAAATGATA [CACACA_site8564] | 9.41 |
| CATTTTTTGCTTTCAACACACATACAATATATATAA [CACACA_site6127] | 9.46 |
| AAGGATCACGCACAAACACACATATTTATATTTATA [CACACA_site6405] | 9.47 |
| CTTTATTTTTTATACACACACAATATGTATATATAT [CACACA_site3550] | 9.83 |
| CATATAATAAATAATACACACATATTGTAAATATAT [CACACA_site5734] | 9.62 |
| GTAATGAACAAACACAAAAAAAAAAAAAAAATAATA [TGCATGCA_negctrl_site344] | 9.27 |
| AATTGAGTATCGTGAGTGCAAAACGTGGTTCAAAGA | 9.37 |
| TAAAATAAAATAAAATGTACTTTCCTTTTGATAATA [XGTACX_site6288] | 8.86 |
| TTTTCCCTTACAGAAAAAAAAAAATTCCTAACCCCG [CACACA_negctrl_site650] | 9.03 |
| ATATATTTTAGGAGAGTGCATTTAATATTATTTAAT [GTGCAC_site9444] | 9.11 |
| TTATATATTTATAATCGTACAATAATTAACGTAAAA [XGTACX_site3206] | 9.09 |
| TATATGGGATATATGTGTACATATAAAATATGTATC [XGTACX_site3365] | 9.21 |
| TTTTTTTTTTTTTTTACACACATTTGAATAACTTTA [CACACA_site6810] | 9.24 |

| Sequence | gcPBM binding intensity (ln) |
| --- | --- |
| AAAAGAATTAAAAAATGTACATATAATATATATATA [XGTACX_site6721] | 9.22 |
| CTTAATATGAATAAAACACACATATATAATTTGTAA [CACACA_site5120] | 9.38 |
| AAAAAAGAAGACATCTAAGTAATAGTAACAATGTAT [CACACA_negctrl_site1660] | 9.45 |
| GACATATTATTCATGTGTACATATTATATGTATATA [XGTACX_site3442] | 9.32 |
| AAGAATTTAGAAGGCATGCACTTAAACATGCATATA | 9.12 |
| TATAAATATACACCCACACACATATATAAATAAATA [CACACA_site7717] | 9.89 |
| ATATGTTTGATTTTTTTTTTTTTTTTTTTTATGTGT [CACACA_negctrl_site1001] | 9.39 |
| AAAAAAAAAATTAAAAGTACAGAAAATAAATAAATA [XGTACX_site7470] | 9.27 |
| TTAATACACCATAAAAGTACATAATATGATATTTAA [XGTACX_site8561] | 9.23 |
| TTTTTCTTTTTTTTTTCCTTTATCACATAAGAAAAA [CACACA_negctrl_site192] | 8.89 |
| AAAATGAAGAAGTGCACACATATATATATTTATATA [CACACA_site507] | 9.59 |
| AAGATATGAGGGAATACACACATATATATATATATA [CACACA_site1581] | 9.37 |
| AAGAAAATAAATAATACACACAAGGATTTGTAAATA [CACACA_site690] | 9.71 |
| CTTTTTTTTTAAAAATGTACACATTTTTGAAAATAC [XGTACX_site3127] | 8.92 |
| CATAATATATATTGAGCATGCTACTATTGTTAGAAA [TGCATGCA_site740] | 9.18 |
| ACATATAAGATATATACACACATATAAATACATTAA [CACACA_site7763] | 9.7 |
| AAAAAAAAAAACTACACACATACAAATATTTATATA [CACACA_site2574] | 9.58 |
| TTATAAAAAGAACAATTAAAAAAAAATAAAATAAAA [XGTACX_negctrl_site398] | 9.13 |
| AGAATAGTGGAAAACACACACGTTTGAGATATGGAC [CACACA_site4782] | 9.75 |
| CACCCACCCACATACACACACATACACATATATATA [CACACA_site1722] | 10.2 |
| GCACGTGTGATTAGATGTACATAACATGTATATGTC [XGTACX_site4632] | 9.18 |
| TTTTTATGTTCTATATATATATATATATATATATAT [GTGCAC_negctrl_site306] | 9.25 |
